Sequences with one replicate were seen in a single cluster, so their values are uncertain.
Each sequence was assayed on ATP (assay: switch fluorescence ratio, 500 uM ATP over buffer (Cy3 cluster intensity, sum of 5 cycles each) (fold (ratio)); higher = stronger signal-on switching upon ATP binding; sequences stand for … in TCGTCGGCAGCGTCAGATGTGTATAAGAGACAGTTTTTTTTTTTTTTTTTTTTTTTTT…TC). Settings: aptamer strand: ATP DNA aptamer (quencher-CACCTGGGGGAGTATTGCGGAGGAAGG + anchor), 100 nM annealed; ATP concentration: 500 uM; one replicate.
Method in brief: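 Values give the fluorescence ratio for each switch-domain sequence, averaged from per-cluster ratios of summed target-cycle to summed buffer-cycle Cy3 intensity. The Cy3-labelled switching-strand clusters sat on a modified Illumina MiSeq flow-cell, were annealed to 100 nM quencher-labelled ATP aptamer, and were imaged in selection buffer, then after 15 min with 500 uM ATP at 22 °C. Five cycles ran with NaOH stripping and re-annealing between them, and clusters outside 100-1000 RFU were excluded.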
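Note: ATP exposure 15 min at 22 °C before imaging.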

Sequence | switch fluorescence ratio
ATCCAAAACC | 1.08
ATCCAAAGCT | 1.2
ATCCAATAGG | 1.04
ATCCAATCTG | 0.948
ATCCAATGGA | 1.02
ATCCACCTAT | 1.09
ATCCACGATA | 1.12
ATCCACTTTT | 1.04
ATCCAGGCAG | 1.04
ATCCATTCTA | 1.02
ATCCCCACGT | 1.14
ATCCCCCACC | 1.15
ATCCCCCGGT | 2.51
ATCCCGACCC | 1.14
ATCCCTACGG | 1.01
ATCCCTATTG | 0.999
ATCCCTTTCT | 1.02
ATCCGAGAGT | 0.978
ATCCGCCTG | 1.23
ATCCGGATC | 0.951
ATCCGGTTAG | 1.09
ATCCTCCTTT | 1.07
ATCCTCTACA | 1.07
ATCCTGAGGG | 1.01
ATCCTGGTAG | 0.984
ATCGACGGTC | 1.14

Sequence | switch fluorescence ratio
ATCGAGGGCC | 1.04
ATCGAGGGTC | 0.93
ATCGATATG | 1
ATCGCATGTG | 0.982
ATCGCCACTG | 1.07
ATCGCCGAGA | 1.03
ATCGCCGGTG | 0.984
ATCGCGCCTC | 1.1
ATCGCGGGTG | 1
ATCGCTATGA | 1.04
ATCGCTCGGC | 1.07
ATCGCTCTC | 1.91
ATCGCTGTCT | 1.02
ATCGGAACGA | 1.01
ATCGGCCGGA | 1.02
ATCGGCGTTC | 0.985
ATCGGTAGAC | 1.01
ATCGGTTGCA | 0.995
ATCGTATTTA | 1.02
ATCGTCCTTG | 0.991
ATCGTCGGGG | 0.964
ATCGTCTCGT | 0.984
ATCGTGCAGC | 0.992
ATCGTTAAGG | 0.967
ATCGTTACCC | 1.04
ATCGTTTACT | 1.02

Sequence | switch fluorescence ratio
ATCTAACGGT | 1.01
ATCTACAGCT | 1.03
ATCTATATGT | 1
ATCTATTGTT | 0.998
ATCTCAAGTG | 0.964
ATCTCAGCCT | 1.14
ATCTCAGGGA | 0.995
ATCTCCCGAA | 1.1
ATCTCCGAGG | 1.14
ATCTCCTTAT | 1.19
ATCTCGGCTG | 0.993
ATCTCGGGC | 1
ATCTCTTTTC | 1.01
ATCTGAATAA | 0.952
ATCTGACTTA | 1.05
ATCTGATAG | 0.98
ATCTGATTGT | 0.974
ATCTGCCGAG | 1.05
ATCTGGCTGC | 1.06
ATCTGGGAAT | 1
ATCTGGGTA | 1
ATCTGGTCT | 1.03
ATCTGTAAG | 1.04
ATCTTATGCT | 1.04
ATCTTATTA | 0.999
ATCTTTCAGG | 1

Sequence | switch fluorescence ratio
ATCTTTCCAT | 1.03
ATCTTTCTGC | 1
ATCTTTTCCG | 1.04
ATCTTTTCGT | 0.966
ATGAAAATG | 1.02
ATGAAGATAG | 1.01
ATGAAGGCAG | 1.01
ATGAATACGC | 1.08
ATGAATCTTT | 0.992
ATGAATTAT | 1
ATGAATTCGC | 1.05
ATGACAAAGA | 1.02
ATGACAAGTG | 1.01
ATGACCGTGT | 0.999
ATGACGAACG | 1.15
ATGACTATAA | 0.981
ATGAGAGGAC | 1.02
ATGAGCAATT | 1.78
ATGAGCCCCT | 0.965
ATGAGGATTT | 0.992
ATGAGGCCTG | 1.02
ATGAGGCTTG | 1.04
ATGAGGGCAT | 0.984
